Data on 14 molecules can be found in publication PMC5008309.

The chains behind the UniProt entries cited, without tags or fusion partners. Where a name states a change or a piece, a line headed by the entry shows the natural chain unless it says otherwise. Residues count along the entry.
UniProt P21860: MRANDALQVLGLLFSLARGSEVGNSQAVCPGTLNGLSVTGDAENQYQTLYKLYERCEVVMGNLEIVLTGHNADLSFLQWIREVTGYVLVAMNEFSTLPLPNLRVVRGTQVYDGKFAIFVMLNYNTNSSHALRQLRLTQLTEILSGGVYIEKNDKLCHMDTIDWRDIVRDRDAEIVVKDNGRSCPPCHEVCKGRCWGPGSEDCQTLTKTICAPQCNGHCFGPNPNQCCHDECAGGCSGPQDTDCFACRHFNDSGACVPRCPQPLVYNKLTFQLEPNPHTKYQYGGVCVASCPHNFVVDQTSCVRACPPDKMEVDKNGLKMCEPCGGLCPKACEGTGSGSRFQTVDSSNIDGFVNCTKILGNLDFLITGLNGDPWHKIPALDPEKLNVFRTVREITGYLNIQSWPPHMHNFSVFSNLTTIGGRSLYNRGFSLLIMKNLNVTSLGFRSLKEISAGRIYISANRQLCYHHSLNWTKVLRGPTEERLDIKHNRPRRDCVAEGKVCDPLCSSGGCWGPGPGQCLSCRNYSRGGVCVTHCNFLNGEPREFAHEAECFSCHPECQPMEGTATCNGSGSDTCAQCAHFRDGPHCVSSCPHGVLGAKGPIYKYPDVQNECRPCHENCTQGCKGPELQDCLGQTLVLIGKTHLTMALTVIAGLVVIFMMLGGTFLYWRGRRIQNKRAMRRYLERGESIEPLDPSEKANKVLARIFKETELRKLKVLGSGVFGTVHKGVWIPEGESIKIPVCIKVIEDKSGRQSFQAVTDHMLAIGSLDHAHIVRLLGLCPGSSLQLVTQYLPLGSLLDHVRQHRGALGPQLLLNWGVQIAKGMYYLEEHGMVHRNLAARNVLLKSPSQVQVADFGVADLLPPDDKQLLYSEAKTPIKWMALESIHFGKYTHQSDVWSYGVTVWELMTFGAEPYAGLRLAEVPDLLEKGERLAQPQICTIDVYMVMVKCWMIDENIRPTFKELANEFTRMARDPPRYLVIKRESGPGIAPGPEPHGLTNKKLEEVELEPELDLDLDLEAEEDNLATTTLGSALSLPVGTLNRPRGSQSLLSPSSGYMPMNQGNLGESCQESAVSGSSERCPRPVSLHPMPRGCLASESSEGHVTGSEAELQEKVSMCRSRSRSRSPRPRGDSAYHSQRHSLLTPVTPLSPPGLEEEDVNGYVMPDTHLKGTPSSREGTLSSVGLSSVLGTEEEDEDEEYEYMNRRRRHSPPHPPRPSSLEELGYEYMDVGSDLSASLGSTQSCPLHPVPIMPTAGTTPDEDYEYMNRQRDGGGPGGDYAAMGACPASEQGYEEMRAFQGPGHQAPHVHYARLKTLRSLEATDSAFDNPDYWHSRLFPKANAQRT
ERBB3-3xFLAG (pERBB3-3xFLAG), wild type: residues 20-1342 of P21860
ERBB3-ΔA lacking the C-terminal tail region: residues 20-979 of P21860
ERBB3-TK only: residues 701-979 of P21860
ERBB3-CRΔTK (residues 980-1342): residues 980-1342 of P21860

Where a chain is given by its changes, count along the chain named. Names may count otherwise. These are yes or no findings as the source states them, for the method shown. Binding seen in cells or lysates may run through a third protein. Some binding calls cover weakened binding; strength is not graded here. For part of these data: Where a sequence is shown, tags or fusion partners need not be part of it.

The target of experiment [1] is T1, Apaf-1-interacting protein (APIP), endogenous in SNU-16 cells (human (endogenous in SNU-16)) (UniProt Q96GX9).
T1 sequence: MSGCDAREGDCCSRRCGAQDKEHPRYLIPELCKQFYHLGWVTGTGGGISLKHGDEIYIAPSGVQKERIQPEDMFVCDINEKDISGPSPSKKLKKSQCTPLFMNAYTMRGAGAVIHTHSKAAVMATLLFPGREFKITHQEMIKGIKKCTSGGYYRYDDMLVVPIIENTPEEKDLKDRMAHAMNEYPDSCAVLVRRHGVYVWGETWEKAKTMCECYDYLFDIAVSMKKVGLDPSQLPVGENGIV
Briefly: co-IP; endogenous proteins of SNU-16 cells (growing, or treated with 50 ng/ml HRG-β1 for 10 min; control or APIP knockdown cells); CHAPS buffer (30 mM Tris-Cl pH 7.5, 150 mM NaCl, 1% CHAPS); 12 h at 4°C with anti-APIP, anti-ERBB3 or anti-ERBB2 antibody; western blotting. (A western blot detects proteins with antibodies after separation by electrophoresis.)

For the next experiment, the target named is T2, GST-APIP (human) (UniProt Q96GX9).
T2 sequence: T1 sequence
Briefly: pull-down; in vitro translated 35S-methionine-labeled ERBB3 incubated with purified GST or GST-APIP immobilized on glutathione-Sepharose 4B beads; SDS-PAGE, autoradiography; only the target purified.

The next experiment concerns the target T3, APIP-VC (human) (UniProt Q96GX9).
T3 sequence: T1 sequence
Description: split reporter; split-Venus BiFC; cells transfected with VN- and VC-fusion constructs, 37°C for 18 h; living cells imaged by fluorescence microscopy; unlabeled full-length ERBB3 co-expressed as competitor.

For experiment [2], the target named is ERBB3-3xFLAG (pERBB3-3xFLAG), wild type (UniProt P21860). Briefly: co-IP; HEK293T cells co-transfected with pHA-APIP (or APIP deletion mutant) and pERBB3-3xFLAG (or ERBB3 deletion mutant) for 24 h; whole-cell lysates immunoprecipitated; western blotting.
Experiment [3] concerns the target T4, HA-tagged APIP (pHA-APIP) expressed in HEK293T cells (human) (UniProt Q96GX9).
T4 sequence: T1 sequence
Description: co-IP; HEK293T cells co-transfected with 3xFLAG-tagged APIP (WT or histidine mutants) and HA-tagged APIP for 18 h; RIPA buffer; lysates incubated 2 h at 4°C with monoclonal HA or FLAG antibody, protein A/G beads; western blotting.

A further experiment deals with ERBB3-TK only (UniProt P21860). Briefly: co-IP; HEK293T cells co-transfected with pHA-APIP (or APIP deletion mutant) and pERBB3-3xFLAG (or ERBB3 deletion mutant) for 24 h; whole-cell lysates immunoprecipitated; western blotting.
In experiment [4] the target is ERBB3-ΔA lacking the C-terminal tail region (UniProt P21860). Described as above.
Experiment [5] addresses ERBB3-CRΔTK (residues 980-1342) (UniProt P21860). The experiment is described as above.
The next experiment concerns the target ERBB3-VC (UniProt P21860). Description: split reporter; split-Venus BiFC; cells transfected with VN- and VC-fusion constructs, 37°C for 18 h; living cells imaged by fluorescence microscopy; unlabeled full-length ERBB3 co-expressed as competitor.
Experiment [6] deals with phosphorylated ERBB3 (Y1289), endogenous in SNU-16 cells treated with HRG-β1 (human (endogenous in SNU-16)) (UniProt P21860). Briefly: co-IP; endogenous proteins of SNU-16 cells (growing, or treated with 50 ng/ml HRG-β1 for 10 min; control or APIP knockdown cells); CHAPS buffer (30 mM Tris-Cl pH 7.5, 150 mM NaCl, 1% CHAPS); 12 h at 4°C with anti-APIP, anti-ERBB3 or anti-ERBB2 antibody; western blotting.

Experiment [7] deals with ERBB3 (HER3), endogenous in SNU-16 cells (human (endogenous in SNU-16)) (UniProt P21860). Described as above.
For a further experiment, the target named is ERBB3-VN (UniProt P21860). Description: split reporter; split-Venus BiFC; cells transfected with VN- and VC-fusion constructs, 37°C for 18 h; living cells imaged by fluorescence microscopy; unlabeled full-length ERBB3 co-expressed as competitor.

In the case of “ERBB3 (HER3), endogenous in SNU-16 cells (from UniProt P21860 20-1342) (receptor)”, the binding result in experiment [1] was “binds”. Take “in vitro translated, 35S-methionine-labeled ERBB3 (from UniProt P21860 1-1342) (receptor)”: the binding entry with GST-APIP (human) is on record as “binds”. Take “unlabeled full-length ERBB3 (from UniProt P21860 20-1342) (receptor)”: the binding result in the experiment with APIP-VC (human) was “binds”.

B1: APIP-ΔC mutant lacking the C-terminal region (residues 181-242) (domain or fragment, UniProt Q96GX9-1 1-180)
chain: MSGCDAREGDCCSRRCGAQDKEHPRYLIPELCKQFYHLGWVTGTGGGISLKHGDEIYIAPSGVQKERIQPEDMFVCDINEKDISGPSPSKKLKKSQCTPLFMNAYTMRGAGAVIHTHSKAAVMATLLFPGREFKITHQEMIKGIKKCTSGGYYRYDDMLVVPIIENTPEEKDLKDRMAHA
Take B1: in experiment [2], the binding result is on record as “no binding”.

B2: HA-tagged APIP (pHA-APIP) expressed in HEK293T cells (protein, UniProt Q96GX9-1 1-242)
chain: T1 sequence
As for B2, the binding entry in [3] was “binds”; with ERBB3-TK only, “no binding”; in [4], “no binding”; in [5], “binds”.

B3: APIP-VN (protein, UniProt Q96GX9-1 1-242)
chain: T1 sequence
Take B3: the binding entry with ERBB3-VC is listed as “binds”.

B4: Apaf-1-interacting protein (APIP), endogenous in SNU-16 cells (protein, UniProt Q96GX9 1-242)
chain: T1 sequence
As for B4, the binding entry in experiment [6] and in experiment [7] was “binds” in each case.

B5: 3xFLAG-tagged APIP H115A (protein, UniProt Q96GX9-1 1-242)
chain: T1 sequence with H115A
Regarding B5, the binding result in experiment [3] is recorded as “binds”.

B6: 3xFLAG-tagged APIP H195A (protein, UniProt Q96GX9-1 1-242)
chain: T1 sequence with H195A
Take B6: the binding result in experiment [3] is “binds”.

B7: APIP-VC (protein, UniProt Q96GX9-1 1-242)
chain: T1 sequence
In the case of B7, the binding result in the experiment with ERBB3-VN was “binds”.

B8: 3xFLAG-tagged APIP H117A (protein, UniProt Q96GX9-1 1-242)
chain: T1 sequence with H117A
Turning to B8, the binding result in experiment [3] was “binds”.

B9: 3xFLAG-tagged APIP triple mutant (T.M., H115/H117/H195A) (protein, UniProt Q96GX9-1 1-242)
chain: T1 sequence with H115A, H117A, H195A
As for B9, the binding entry in experiment [3] was “binds”.

B10: APIP-ΔB mutant lacking the N-terminal region (residues 1-119) (domain or fragment, UniProt Q96GX9-1 120-242)
chain: AAVMATLLFPGREFKITHQEMIKGIKKCTSGGYYRYDDMLVVPIIENTPEEKDLKDRMAHAMNEYPDSCAVLVRRHGVYVWGETWEKAKTMCECYDYLFDIAVSMKKVGLDPSQLPVGENGIV
On to B10, for which the binding entry in experiment [2] is recorded as “binds”.

B11: APIP-ΔA mutant lacking the N-terminal region (residues 1-60) (domain or fragment, UniProt Q96GX9-1 61-242)
chain: SGVQKERIQPEDMFVCDINEKDISGPSPSKKLKKSQCTPLFMNAYTMRGAGAVIHTHSKAAVMATLLFPGREFKITHQEMIKGIKKCTSGGYYRYDDMLVVPIIENTPEEKDLKDRMAHAMNEYPDSCAVLVRRHGVYVWGETWEKAKTMCECYDYLFDIAVSMKKVGLDPSQLPVGENGIV
Consider B11, for which, in experiment [2], the binding entry is “binds”.
